Laboratory results taken from PubChem BioAssay AID360 (National Center for Advancing Translational Sciences (NCATS), 2006).
In all, about 48,000 compounds went through this assay and about 550 (1.1%) were called active. About 4% were inconclusive and are not listed. Rule as the data show it: active = potency below about 15 µM; inconclusive = mostly about 16 µM to 33 µM; inactive = weaker than that. Some of the results follow.

molecular target: Lysosomal acid glucosylceramidase (Homo sapiens) (UniProt P04062); test: Glucocerebrosidase; settings: purified enzyme, resorufin glucoside fluorescence (screen aimed at inhibitors), 20 min;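 also: the screen sought inhibitors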
Summary of the method: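 Normal human glucocerebrosidase (0.2 nM final) was assayed with resorufin β-D-glucopyranoside (30 uM final) in 50mM citric acid/KH2PO4, 10mM sodium taurocholate, 0.01% tween-20, pH 5.9. Compounds were titrated; fluorescence (Ex 548, Em 600) read after 20 min at RT.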
Potency is read from the fitted curve at half-maximal effect.

Chain of UniProt P04062 (P04062 whole entry, looked up): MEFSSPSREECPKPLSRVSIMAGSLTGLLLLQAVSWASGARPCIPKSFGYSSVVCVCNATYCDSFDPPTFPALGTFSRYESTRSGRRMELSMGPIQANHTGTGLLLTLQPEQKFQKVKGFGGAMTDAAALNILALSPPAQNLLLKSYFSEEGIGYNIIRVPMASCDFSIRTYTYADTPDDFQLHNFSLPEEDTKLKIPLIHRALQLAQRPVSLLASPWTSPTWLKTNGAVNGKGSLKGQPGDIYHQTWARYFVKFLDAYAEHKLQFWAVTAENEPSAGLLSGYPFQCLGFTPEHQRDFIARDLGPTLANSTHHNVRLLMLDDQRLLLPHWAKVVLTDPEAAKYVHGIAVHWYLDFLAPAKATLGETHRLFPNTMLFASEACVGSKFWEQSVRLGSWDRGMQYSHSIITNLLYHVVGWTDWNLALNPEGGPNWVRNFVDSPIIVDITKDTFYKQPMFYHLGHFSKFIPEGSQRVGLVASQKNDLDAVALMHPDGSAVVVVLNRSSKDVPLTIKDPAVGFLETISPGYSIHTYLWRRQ

Potency, inactive:
CCn1c(SCc2nc3ccccc3s2)nc2cc(S(=O)(=O)N3CCOCC3)ccc21 > 76.9 µM
Cc1ccc(NC(=O)Cn2nnc(C(=O)Nc3ccc(C)c(C)c3)c2N)cc1 > 76.9 µM
CCOc1ccc(NS(=O)(=O)c2ccc3[nH]cc(C(=O)N(CC)CC)c(=O)c3c2)cc1 > 76.9 µM
O=C(CSc1nnc(NC(=O)c2ccco2)s1)NC1CCCC1 > 76.9 µM
c1ccc(CSCc2cn3ccsc3n2)cc1 > 76.9 µM
COc1cc(C(=O)Nc2ccc3c(c2)OCCO3)c(-n2cnnn2)cc1OC > 76.9 µM
CCN(CC)S(=O)(=O)c1ccc2nc(COC(=O)c3n[nH]c4ccccc34)[nH]c2c1 > 76.9 µM
O=c1cc(N2CCOCC2)[nH]c(=O)n1C1CCCCC1 > 76.9 µM
CCOC(=O)c1c(NC(=O)COc2ncnc3sccc23)sc2c1CCC2 > 76.9 µM
Cc1cc(Br)ccc1OCC(=O)N(Cc1nc(-c2ccccc2)no1)C(C)C > 76.9 µM
Cc1ccc(-n2c(Cc3cccn3C)nnc2SCC(=O)N2CCN(c3ccccc3)CC2)cc1 > 76.9 µM
O=C(O)c1cc(Nc2nc(N3CCOCC3)nc(N3CCOCC3)n2)ccc1Cl > 76.9 µM
Cc1cc(N2CCOCC2)n2nc(-c3cccc(F)c3)cc2n1 > 76.9 µM
C=CCn1c(SCC(=O)c2ccccc2)nnc1-c1cc2ccccc2o1 > 76.9 µM
CC(C(=O)NCCC1=CCCCC1)N1C(=O)c2ccccc2C1=O (stereo not drawn) > 76.9 µM
N#Cc1ccc(NC(=O)CN2C(=O)NC(Cc3ccccc3)C2=O)cc1 (stereo not drawn) > 76.9 µM
CCCn1nnnc1SCC(=O)Nc1ccc(F)cc1 > 76.9 µM
CCC1(CC)C(=O)NC(=O)NC1=Nc1cccc(OC)c1 > 76.9 µM
Cc1ccc2c(NC(=O)C3CC3)cccc2n1 > 76.9 µM
Cc1cccc(N2CCN(C(c3cccs3)c3nnnn3C(C)(C)C)CC2)c1C (stereo not drawn) > 76.9 µM
Cc1nnc2sc(-c3ccc(NC(=O)c4ccc(-c5ccc(Br)cc5)o4)cc3)nn12 > 76.9 µM
O=C1CC(c2ccco2)Cc2nc(N3CCc4ccccc4C3)ncc21 (stereo not drawn) > 76.9 µM
COc1ccc(C(=O)C(c2ccccc2)N2CCOCC2)cc1 (stereo not drawn) > 76.9 µM
Cc1ccccc1CSCC(=O)NC(=O)NC(C)(C)C > 76.9 µM
CCn1cnc2sc(C(=O)O)c(C)c2c1=O > 76.9 µM
COc1ccc(OC)c(CC(NC(C)=O)C(=O)NC2CCN(c3nc(C)cc(C)c3C#N)CC2)c1 (stereo not drawn) > 76.9 µM
COc1ccc(CNC(=O)CN(C(=O)c2ccc(CN3CCOCC3)o2)C2CCCC2)cc1 > 76.9 µM
Cc1cccc(OCC(=O)N(Cc2cccs2)C2CCS(=O)(=O)C2)c1 (stereo not drawn) > 76.9 µM
O=C(c1ccc(COCC(F)(F)F)o1)N1CCCCCC1 > 76.9 µM
CS(=O)(=O)n1nc(C(=O)N2CCOCC2)nc1N > 76.9 µM
O=C(Cc1ccccc1)Nc1nonc1NC(=O)c1ccccc1 > 76.9 µM
COC(=O)c1cc(-c2ccc(OC)c(OC)c2)n[nH]1 > 76.9 µM
Cc1ccc(-n2c(N)c(C(N)=O)sc2=S)c(C)c1 > 76.9 µM
Cc1noc(C)c1COC(=O)c1ccc2c(c1)OCO2 > 76.9 µM
CCC(C)NC(=O)Cn1cccc1C(=O)c1ccccc1 (stereo not drawn) > 76.9 µM
O=C(CCNS(=O)(=O)c1cccc2nsnc12)NC1CCCc2ccccc21 (stereo not drawn) > 76.9 µM
C/C=C/Cn1c(N2CCCCCC2)nc2c1c(=O)[nH]c(=O)n2C > 76.9 µM
CCOC(=O)Cc1csc(NC(=O)c2ccc(C)o2)n1 > 76.9 µM
O=S(=O)(NCc1ccccc1)c1cccc2nonc12 > 76.9 µM
CCOC(=O)C1CCN(CC(=O)N2C(C)CCCC2C)CC1 (stereo not drawn) > 76.9 µM
N#Cc1nc(N)nc(N(c2ccccc2)c2ccccc2)n1 > 76.9 µM
CCOC(=O)c1cc(C)n(-c2c(C)n(C)n(-c3ccccc3)c2=O)c1C > 76.9 µM
CCOCCCNC(=O)C1CCN(S(=O)(=O)c2c(C)noc2/C=C\c2ccc(OC)cc2)CC1 > 76.9 µM
Cc1cc(NC(=O)c2sccc2C)n(-c2cccc(Cl)c2)n1 > 76.9 µM
Cc1cc(C)n(CC(O)COCc2ccccc2)n1 (stereo not drawn) > 76.9 µM
CC(C)Cn1c(=O)c2c(nc3n2CCCN3CCc2ccccc2)n(C)c1=O > 15.4 µM
CCOC(=O)N1CCC(NC(=O)CCc2cn(C)c3ccccc23)CC1 > 76.9 µM
C=CCn1c(N)c(C(=O)NCc2cccnc2)sc1=S > 76.9 µM
CCCCCn1c(S(=O)(=O)O)nc2ccccc21 > 76.9 µM
Cc1oc(-c2ccc3c(c2)OCCO3)cc1C(=O)O > 76.9 µM
COC(=O)C1=C(N)Oc2cc(C)n(CC3CCCO3)c(=O)c2C1c1ccccc1OC (stereo not drawn) > 76.9 µM
O=C(NC1CCCCC1)C(c1ccco1)N(Cc1cccs1)C(=O)Cn1nnc2ccccc21 (stereo not drawn) > 76.9 µM
Cc1ccc(CNC(=O)CCNS(=O)(=O)c2ccc3c(c2)c(=O)n(C)c(=O)n3C)cc1 > 76.9 µM
Cn1c(C(=O)NCC2CCCO2)cc2c(=O)n3ccccc3nc21 (stereo not drawn) > 76.9 µM
O=C(CNC(=O)c1ccc(Cl)cc1)NCCCn1ccnc1 > 76.9 µM
CCCn1nnnc1SCC(=O)c1ccc2c(c1)OCCO2 > 76.9 µM
CCN(C(=O)CSc1nnc(Cn2nnc3ccccc32)o1)c1nc(-c2ccccc2)cs1 > 76.9 µM
CN1CCN(C2=C(Cl)C(=O)N(CCc3ccccc3)C2=O)CC1
